Values marked as one replicate rest on one cluster of the flow cell; about a third of the high ones do not repeat.

This is an account of results in the supplement of paper PMC10126150.

The test system of the series is ATP. Kind of series: switch fluorescence ratio, 500 uM ATP over buffer (Cy3 cluster intensity, sum of 5 cycles each) (fold (ratio)); higher = stronger signal-on switching upon ATP binding; sequences stand for … in TCGTCGGCAGCGTCAGATGTGTATAAGAGACAGTTTTTTTTTTTTTTTTTTTTTTTTT…TC. The settings on record: aptamer strand: ATP DNA aptamer (quencher-CACCTGGGGGAGTATTGCGGAGGAAGG + anchor), 100 nM annealed; ATP concentration: 500 uM; one replicate. The procedure, abridged: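 Clusters carrying Cy3-labelled switching strands on a modified Illumina MiSeq flow-cell were annealed to 100 nM quencher-labelled ATP aptamer and imaged in selection buffer. They were imaged again after 15 min with 500 uM ATP at 22 °C, over five buffer/ATP cycles with NaOH stripping and re-annealing in between. For each cluster, the fluorescence ratio is the summed Cy3 intensity of the target cycles divided by that of the buffer cycles, averaged per switch-domain sequence. Clusters outside 100-1000 RFU were left out.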
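Also: ATP exposure 15 min at 22 °C before imaging.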

As for CGAGGCCTCA, the switch fluorescence ratio was determined as 1.01.

For CAGGCAGGT, the switch fluorescence ratio turned out to be 0.997.

As to TAACTAGGA, the switch fluorescence ratio was 0.974.

Consider ATTTTAAAT, for which the switch fluorescence ratio was found to be 1.01.

On to AGACGCCTCA, for which the switch fluorescence ratio was 0.986.

In the case of TGAATATAAC, the switch fluorescence ratio amounted to 0.98.

For ATGCGGGGAG, the switch fluorescence ratio was determined as 1.01.

CAGGAGAATT: the switch fluorescence ratio came out at 0.995.

As for GATTTGATCA, the switch fluorescence ratio was 0.999.

For CTGGATAATA, the switch fluorescence ratio is 1.01.

As for TGAATAGGTT, the switch fluorescence ratio was determined as 1.

Take TCTTGTTTCC: the switch fluorescence ratio came to 1.1.

Consider TCGTAATGTT, for which the switch fluorescence ratio was 1.05.

On to ATATAGGCGC, for which the switch fluorescence ratio stood at 1.

Consider TATTACCTAG, for which the switch fluorescence ratio was 1.07.

Consider GACACGCACT, for which the switch fluorescence ratio worked out at 1.7.

Consider GGTTCTCCAG, for which the switch fluorescence ratio amounted to 1.

For TTCCATTC, the switch fluorescence ratio came out at 1.01.

As to CTTTAGGTTT, the switch fluorescence ratio stood at 1.01.

TGTTCAAAAA: the switch fluorescence ratio turned out to be 0.993.

As for TTGCAGTAAA, the switch fluorescence ratio was found to be 0.948.

In the case of TTTAACTGCT, the switch fluorescence ratio was found to be 0.989.

With TGACAGAGCG, the switch fluorescence ratio amounted to 1.1.

Take AGCGATTTTA: the switch fluorescence ratio turned out to be 1.03.

Take ACCGTTTCTC: the switch fluorescence ratio was found to be 1.03.

For GAAGGGAGCT, the switch fluorescence ratio came to 1.02.

Regarding TATTATCCAT, the switch fluorescence ratio was 1.04.

On to GTGATATTCG, for which the switch fluorescence ratio came to 0.925.

For ACAGTGGCGT, the switch fluorescence ratio stood at 0.983.

As for TTGTGAGGCT, the switch fluorescence ratio was 1.13.

As for CAGTGGGGAT, the switch fluorescence ratio was found to be 1.09.

As for GGACTGTAGG, the switch fluorescence ratio is 0.982.

As to CCGTCTTAAT, the switch fluorescence ratio is 1.01.

On to TACGAGCATG, for which the switch fluorescence ratio turned out to be 1.21.

As for GCGCTAAGTG, the switch fluorescence ratio is 0.992.

Consider TAATAAGG, for which the switch fluorescence ratio was 0.969.

Consider ATTTTTGTAT, for which the switch fluorescence ratio is 0.988.

For ATGATTAAAT, the switch fluorescence ratio was 0.94.

As to ATATTGGAT, the switch fluorescence ratio is 0.998.

CGTGCTGTTC: the switch fluorescence ratio was 0.952.

Take ACGTGGGAC: the switch fluorescence ratio is 1.18.

As for TGTATAGGAG, the switch fluorescence ratio came to 0.974.

Regarding TGTGGCGGTA, the switch fluorescence ratio is 1.04.

TGTCCTTGTG: the switch fluorescence ratio turned out to be 1.02.

On to GCCTTGGTG, for which the switch fluorescence ratio came out at 1.33.

Consider CCAGATACCG, for which the switch fluorescence ratio was 1.02.

With CATTTGAGAA, the switch fluorescence ratio worked out at 0.999.

CGGCGTACGT: the switch fluorescence ratio stood at 1.04.

Regarding GTAATGAGAT, the switch fluorescence ratio came out at 0.978.

Consider GATGGAACC, for which the switch fluorescence ratio amounted to 1.05.

As for TCACTATATA, the switch fluorescence ratio came to 1.05.

Take TGTCCGTTTC: the switch fluorescence ratio came out at 0.986.

Regarding TGCAAGCAGG, the switch fluorescence ratio turned out to be 1.01.

ACCGTTAATG: the switch fluorescence ratio was determined as 1.06.

As for GCTATATTGT, the switch fluorescence ratio stood at 0.987.

For the sequence TAATTACTG, the switch fluorescence ratio was 1.02.

On to GGGTTTAGG, for which the switch fluorescence ratio worked out at 1.

As to GGATCAGACA, the switch fluorescence ratio came out at 0.986.

In the case of CTCTCTCAGA, the switch fluorescence ratio is 1.03.

Take AAGTGGAGTT: the switch fluorescence ratio stood at 0.991.

With TCGGGTTTGC, the switch fluorescence ratio turned out to be 1.02.

Take AATTGACGGC: the switch fluorescence ratio stood at 1.15.

Turning to CCTCATGGTC, the switch fluorescence ratio amounted to 1.17.

As for ACTCAGCGGG, the switch fluorescence ratio amounted to 1.14.

Consider AGACGGATTG, for which the switch fluorescence ratio worked out at 0.952.

As to GCGGCCGCTG, the switch fluorescence ratio came to 1.01.

On to CCGGCGGGCC, for which the switch fluorescence ratio was found to be 1.02.

Consider CCCAAGGTTG, for which the switch fluorescence ratio turned out to be 2.07.

Turning to ATCTGTAGGC, the switch fluorescence ratio was 1.03.

As for ATCGCAAGCG, the switch fluorescence ratio was determined as 1.12.

Turning to CTCTATATCC, the switch fluorescence ratio was determined as 1.08.

Regarding AGCGGTCCAA, the switch fluorescence ratio is 1.06.

CAATATAATT: the switch fluorescence ratio was 1.03.

Take ACAGGTGGCC: the switch fluorescence ratio was determined as 1.25.

On to ATAAGTTGCG, for which the switch fluorescence ratio is 0.97.

Consider CATTGCGGCT, for which the switch fluorescence ratio worked out at 1.05.

As for TTCCGCAGAT, the switch fluorescence ratio came out at 4.53.

As for TAATATAAAT, the switch fluorescence ratio worked out at 0.998.

As for AAGCTTTCTT, the switch fluorescence ratio came out at 1.03.

As for GGATCATTAC, the switch fluorescence ratio was 0.987.

CTGCGTTGTT: the switch fluorescence ratio was 2.47.

As for TACCGGGTGC, the switch fluorescence ratio came to 1.05.

In the case of TACCTTAACA, the switch fluorescence ratio came out at 1.07.

In the case of GCACAATTGG, the switch fluorescence ratio worked out at 0.976.

With GCCACTGCGA, the switch fluorescence ratio stood at 1.15.

Take GGACTCACGA: the switch fluorescence ratio stood at 1.32.

With AGAATTCCAT, the switch fluorescence ratio came to 0.933.

With GCGTTGCTAT, the switch fluorescence ratio came out at 0.967.

For the sequence GCATGCGCCG, the switch fluorescence ratio was found to be 1.05.

Consider CAATTAAAG, for which the switch fluorescence ratio was determined as 0.995.

Take TACCTCGGCC: the switch fluorescence ratio worked out at 1.16.

As for ACACCCATGG, the switch fluorescence ratio came to 1.21.

For the sequence TGGGGGTCC, the switch fluorescence ratio stood at 0.974.

With TAGGAAGCTT, the switch fluorescence ratio is 1.06.

In the case of GTACAAGGAT, the switch fluorescence ratio is 1.01.

As for CATCACGCTT, the switch fluorescence ratio turned out to be 1.72.

Turning to TACGCCGGGG, the switch fluorescence ratio came to 1.01.

On to AGGATGATTC, for which the switch fluorescence ratio was found to be 1.02.

ACGGCCTAGG: the switch fluorescence ratio was 1.04.

Turning to AGGATTAAAA, the switch fluorescence ratio is 0.96.

On to ACGATCATCT, for which the switch fluorescence ratio stood at 1.06.

CCCCGGGGAC: the switch fluorescence ratio was 1.09.

Regarding GGTACAGGAT, the switch fluorescence ratio worked out at 0.992.

For the sequence CGAGGGACGA, the switch fluorescence ratio was found to be 1.02.

For the sequence GAGGTTCGAG, the switch fluorescence ratio was 0.982.

As to CTCACTTACG, the switch fluorescence ratio worked out at 1.55.

On to TTACGCTAC, for which the switch fluorescence ratio came to 2.

As to GTGTTCAAAC, the switch fluorescence ratio turned out to be 1.03.

Take TGGCCCTGCC: the switch fluorescence ratio worked out at 0.984.

On to TCATATACCG, for which the switch fluorescence ratio is 0.959.

Turning to TATTGTGGA, the switch fluorescence ratio worked out at 0.985.

For the sequence ATATTTGGA, the switch fluorescence ratio is 1.02.

Turning to TTGTTGGTAT, the switch fluorescence ratio turned out to be 0.993.

Regarding TAAATCGAGC, the switch fluorescence ratio is 0.943.

For the sequence CCAGATTATC, the switch fluorescence ratio turned out to be 1.02.

As to GATGATGACT, the switch fluorescence ratio amounted to 0.986.

As to AAGGCACGAT, the switch fluorescence ratio worked out at 1.04.

AGCATGGGGA: the switch fluorescence ratio turned out to be 1.06.

With ACCCACATAT, the switch fluorescence ratio was 1.36.

Regarding TTGGTTCCGG, the switch fluorescence ratio was 1.01.
